Laboratory results reported in PubChem BioAssay AID686971 (National Center for Advancing Translational Sciences (NCATS), 2013).
Screen size: about 360,000 compounds; about 7,500 (2.1%) were called active. This list was built around the results that the source calls inconclusive (neither active nor inactive); the mix of calls is not that of the screen. The call rests on the fitted dose curve; in most records, active means well fitted cell-killing curve with a large enough effect; inconclusive means small, poorly fitted or top-dose-only effect, or effect the other way, or another doubt; inactive means no such curve, though single readings can be large or run the other way. Potencies of inconclusive entries are left out as doubtful fits.

Experiment: qHTS for induction of synthetic lethality in tumor cells producing 2HG: qHTS for the HT-1080-IDH1KD cell line;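 on activity, negative = toxicity: 0% = DMSO wells and -100% = cell-free medium wells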
Conditions: HT-1080 IDH1 knockdown viability, ATP luminescence, 48 h; activity, negative = toxicity: at 46.1 µM (top of the series) unless noted
Method in brief: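 CellTiter-Glo luminescence after 48 h compound exposure at 37 degrees C of IDH1-knockdown HT-1080 cells in 5% FBS RPMI. %Activity scaled between DMSO wells and cell-free media wells, with curves fitted and assigned curve classes.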
Potency means the concentration at half of the fitted maximal effect; tags describe the fitted curve by direction and shape.

Q: Which Potency does the source give for `CC(NC(=S)NC1CCC(C(C)(C)C)CC1)c1ccccc1` (stereo unspecified) here?
A: inconclusive [cytotoxic, single point]

Q: For `O=C(Nn1cc(C(=O)Nc2ccccc2F)c2ccccc2c1=O)c1cnccn1`, which Potency is on record?
A: inconclusive [cytotoxic, full curve, poor fit]

Q: With `CCC1Nc2ncnc(N3CCc4ccccc4C3)c2N(Cc2ccc(Br)cc2)C1=O` (stereo unspecified) as the compound, how does the Potency read?
A: inconclusive [cytotoxic, single point]

Q: For `CCOC(=O)c1c(N2C(=O)Nc3cc(Cl)c(Cl)cc3N2O)sc2c1CCCCC2`, which Potency is on record?
A: inconclusive [cytotoxic, single point]

Q: With `CCCn1c(NC(=O)c2ccc(Cl)c(S(=O)(=O)N3CCCC3)c2)nc2ccccc21` as the compound, how does the Potency read?
A: inconclusive [cytotoxic, partial curve]

Q: Which Potency does the source give for `CNC(=O)c1cccc(NC(=O)c2cc(-c3ccccc3)nc3c2cnn3C(C)C)c1` here?
A: inconclusive [cytotoxic, single point]

Q: For `OCC1(Cc2ccccc2)CCN(C2CCN(c3ccc(F)c(F)c3)CC2)CC1`, which “activity, negative = toxicity” value is on record?
A: inactive: -23.6%

Q: With `CC[n+]1cccc(-c2nc3ccccc3s2)c1` as the compound, how does the “activity, negative = toxicity” value read?
A: inactive: -12.6%

Q: Which Potency does the source give for `Cc1ccc(OCc2nnc(SCc3ccc(C#N)cc3)n2-c2ccc(C)cc2)cc1` here?
A: active: 11.2 µM

Q: Which activity, negative = toxicity does the source give for `O=C(Nc1ccccc1)Nc1c(F)cccc1F` here?
A: inconclusive: -8.25% [cytotoxic]

Q: Which Potency does the source give for `CC(C)(C)c1cc[n+](C2=C([O-])c3ccccc3C(=O)/C2=N\S(=O)(=O)c2ccccc2)cc1` here?
A: active: 20.6 µM

Q: With `CC(C)(C)c1ccc(OCC(=O)N/N=C/c2ccsc2)cc1` as the compound, how does the “activity, negative = toxicity” value read?
A: inactive: 3.29%

Q: For `CCCc1ccc(OCc2ccc(C(=O)N3CCN(c4ccccn4)CC3)o2)c(OC)c1`, which Potency is on record?
A: inconclusive [cytotoxic, single point]

Q: With `Cc1ccc(Cn2cnc3ccccc32)cc1` as the compound, how does the Potency read?
A: inconclusive [cytotoxic, single point]

Q: With `Nc1nc(Cl)cc(N2CCC(c3cc(-c4ccc(Cl)cc4Cl)n[nH]3)CC2)n1` as the compound, how does the Potency read?
A: inconclusive [cytotoxic, single point]

Q: For `CCCCNS(=O)(=O)c1ccc2nc(SCC(=O)Nc3sccc3C#N)[nH]c2c1`, which Potency is on record?
A: active: 20.6 µM

Q: Which Potency does the source give for `NC(COCc1ccccc1)c1csc(Nc2cc(Oc3ccccc3)ncn2)n1` (stereo unspecified) here?
A: inconclusive [cytotoxic, single point]

Q: Which Potency does the source give for `Cc1cc(C)n(/N=C/c2cc([N+](=O)[O-])ccc2O)c(=O)c1` here?
A: inconclusive [cytotoxic, single point]

Q: Which “activity, negative = toxicity” value does the source give for `CN1CCN(c2ccc(S(=O)(=O)N3CCCCC3)cc2[N+](=O)[O-])CC1` here?
A: inactive: -17.9%

Q: Which Potency does the source give for `COc1ccc(/C=N/NC(=O)c2sc3nc(C)cc(C)c3c2N)cc1` here?
A: inconclusive [rising, full curve, poor fit]

Q: For `Cc1cccc(OCC(=O)NNc2c3ccccc3nc3ccccc23)c1`, which Potency is on record?
A: inconclusive [cytotoxic, single point]

Q: For `CN(C(=O)Cc1c[nH]c2ccccc12)C(C(=O)Nc1ccc2c(c1)OCO2)c1ccccc1` (stereo unspecified), which Potency is on record?
A: inconclusive [cytotoxic, partial curve, poor fit]

Q: For `Cc1csc(SCC(=O)NC(C)c2ccccc2)n1` (stereo unspecified), which “activity, negative = toxicity” value is on record?
A: inactive: 6.48%

Q: For `Oc1c(CN2CCN(c3ccccc3)CC2)cc(Br)c2cccnc12`, which Potency is on record?
A: inconclusive [cytotoxic, full curve]

Q: Which Potency does the source give for `Nc1[nH]c(=O)[nH]c(=O)c1N=Cc1ccccc1` here?
A: inconclusive [cytotoxic, single point]

Q: For `Cc1c(NC(=O)c2cccnc2C(=O)O)cccc1C(=O)O`, which activity, negative = toxicity is on record?
A: inconclusive: 35.4%

Q: With `CCN(CC)c1ccc(/C=N/NC(=O)Cc2cccs2)c(O)c1` as the compound, how does the Potency read?
A: inconclusive [cytotoxic, partial curve]

Q: For `Cc1cccc(NC(=O)c2oc3ccc(S(=O)(=O)N4CCOCC4)cc3c2C)c1C`, which Potency is on record?
A: inconclusive [cytotoxic, single point]

Q: For `COc1ccccc1CNC(=O)C1(C)CCN1Cc1ccc2ccccc2c1` (stereo unspecified), which Potency is on record?
A: inconclusive [cytotoxic, single point]

Q: With `CCOC(=O)c1c(NC(=O)CSc2nnnn2-c2ccccc2OCC)sc2c1CC(C)(C)NC2(C)C` as the compound, how does the Potency read?
A: inconclusive [cytotoxic, single point]

Q: For `CC(C)(C)c1ccc(SCCc2ccncc2)cc1`, which Potency is on record?
A: inconclusive [cytotoxic, single point]

Q: For `COc1ccc(OC)c(NP2(=O)OCC(C)([N+](=O)[O-])CO2)c1` (stereo unspecified), which Potency is on record?
A: inconclusive [rising, single point]

Q: With `Cc1[nH]c2ccccc2c1/C=N/NS(=O)(=O)c1ccccc1` as the compound, how does the activity, negative = toxicity read?
A: inconclusive: -32.3% [cytotoxic]

Q: With `COc1ccc(C(=O)CCN2CCN(c3ccccc3F)CC2)cc1` as the compound, how does the Potency read?
A: inconclusive [cytotoxic, single point]

Q: For `CCCNC(=O)c1cc2c(c(-c3cccc(-c4ccc(F)cc4)c3)n1)[C@@H](CCO)N(S(=O)C(C)(C)C)C2` (stereo partly specified), which Potency is on record?
A: inconclusive [cytotoxic, single point]

Q: With `CCOC(=O)C1(CCOc2ccccc2)CCN(Cc2cccc(OC)c2O)CC1` as the compound, how does the Potency read?
A: inconclusive [cytotoxic, single point]

Q: With `Cc1ccc(C2c3c(oc4ccccc4c3=O)C(=O)N2c2nncs2)cc1` (stereo unspecified) as the compound, how does the activity, negative = toxicity read?
A: inconclusive: 30.7%

Q: With `C[N+](C)(C)CCCNC(=O)c1ccc(/C=N/O)nc1` as the compound, how does the “activity, negative = toxicity” value read?
A: inactive: 13.2%

Q: For `Cc1cc(-c2csc(NC(=O)c3cc4ccccc4o3)n2)c(C)n1C`, which “activity, negative = toxicity” value is on record?
A: inactive: -2.99%

Q: Which Potency does the source give for `O=C(NCCc1cccnc1)c1cc(COc2ccc(F)cc2Cl)on1` here?
A: active: 14.6 µM

Q: With `CC(N)(C(=O)O)c1cccc(OCc2cccc(Cl)c2)c1` (stereo unspecified) as the compound, how does the “activity, negative = toxicity” value read?
A: inactive: 11.3%

Q: With `CN1CCN(c2ccc(CNC(=O)C3Cc4c(-c5ccccc5Oc5ccccc5)ccnc4O3)cc2)CC1` (stereo unspecified) as the compound, how does the Potency read?
A: active: 20.6 µM

Q: Which Potency does the source give for `O=C(N/N=C/c1cccs1)c1n[nH]c2c1CCC2` here?
A: active: 6.51 µM

Q: For `O=C(CN(CCN1CCOCC1)C(=O)Cn1nnc(-c2ccc(F)cc2)n1)NC1CCCCC1`, which “activity, negative = toxicity” value is on record?
A: inactive: -2.76%

Q: For `Cn1cc(/C=N/NC(=O)c2cccc([N+](=O)[O-])c2)c2ccccc21`, which Potency is on record?
A: inconclusive [cytotoxic, single point]

Q: Which Potency does the source give for `C[C@H](c1ccccc1)N1C[C@H](COCc2ccccc2)Oc2cc(N3CCC[C@H]3C(N)=O)ccc2S1(=O)=O` here?
A: inconclusive [cytotoxic, single point]

Q: For `CCOC(=O)c1cnc2ccc(OC)cc2c1Nc1ccc2c(c1)OCCO2`, which Potency is on record?
A: inconclusive [cytotoxic, single point]

Q: For `O=C(OCc1cn([C@H]2CN(CC3CCCCC3)[C@@H](c3ccc(Cl)cc3)C[C@@H]2O)nn1)c1ccccc1`, which Potency is on record?
A: inconclusive [cytotoxic, single point]

Q: For `COc1ccccc1Cc1c(-c2ccc(OC)c(OC)c2)nc2ccc(Br)cn12`, which Potency is on record?
A: active: 18.4 µM

Q: Which “activity, negative = toxicity” value does the source give for `O=C(Nc1nc(=O)c2ccccc2s1)c1ccc(Cl)cc1` here?
A: inactive: 1.56%

Q: Which Potency does the source give for `COc1ccc(-n2cc(CNCCc3nc(C)cc(C)n3)c(-c3ccccc3Cl)n2)cc1` here?
A: active: 16.4 µM

Q: With `O=C(Nc1cccnc1)c1sc(Nc2ccccc2F)nc1-c1ccccc1` as the compound, how does the Potency read?
A: inconclusive [cytotoxic, single point]

Q: For `COc1cc(C(=O)NCC(c2cccs2)N2CCOCC2)ccc1OCc1ccc(Cl)cc1` (stereo unspecified), which Potency is on record?
A: inconclusive [cytotoxic, single point]

Q: With `CN1CCC(OC(=O)c2cc3cc(Cl)cc(Cl)c3oc2=O)CC1` as the compound, how does the Potency read?
A: inconclusive [cytotoxic, partial curve]

Q: With `CCOC(=O)C1=CN(Cc2cccc(Br)c2)S(=O)(=O)N(CC)C1C` (stereo unspecified) as the compound, how does the “activity, negative = toxicity” value read?
A: inactive: -1.37%

Q: Which Potency does the source give for `N/C(=N\OC(=O)Nc1ccccc1)c1ncc([N+](=O)[O-])s1` here?
A: active: 20.6 µM

Q: Which Potency does the source give for `Cc1ccc2c(c1)[nH]c1c(=O)n(Cc3ccco3)cnc12` here?
A: inconclusive [rising, partial curve]

Q: Which “activity, negative = toxicity” value does the source give for `O=C(NCC1CCCO1)C1CCCN(S(=O)(=O)c2ccc(Cl)cc2)C1` (stereo unspecified) here?
A: inactive: -0.883%

Q: For `Cc1ccc(C)c(-n2c(-c3csc(C)c3)n[nH]c2=S)c1`, which Potency is on record?
A: active: 10 µM

Q: For `Cc1c(C(=O)NC2CCCc3ccccc32)cccc1[N+](=O)[O-]` (stereo unspecified), which “activity, negative = toxicity” value is on record?
A: inactive: -5.09%

Q: With `CCN1CCN(c2ccc(NC(=O)CCc3c(C)nc4c(-c5ccccc5)c(C)nn4c3C)cc2)CC1` as the compound, how does the Potency read?
A: inconclusive [cytotoxic, single point]

Q: With `O=C(Nc1ccc(S(=O)(=O)N2CCCCC2)cc1)c1ccncc1` as the compound, how does the Potency read?
A: inconclusive [cytotoxic, full curve, poor fit]

Q: For `COc1cccc(CN2CCC2(C)C(=O)NCCc2ccccn2)c1OC` (stereo unspecified), which “activity, negative = toxicity” value is on record?
A: inactive: -1.79%

Q: With `Cc1ccc(CNC(=O)CSc2nc3n[nH]c(C)c3c(=N)n2-c2cccc(C)c2)cc1` as the compound, how does the Potency read?
A: inconclusive [cytotoxic, single point]

Q: With `C/C(N=Nc1nc2ccccc2s1)=N\Nc1ccccc1O` as the compound, how does the Potency read?
A: active: 14.6 µM

Q: With `NC(=O)c1c(NC(=O)CSc2nnc(-c3ccccc3)n2CC2CCCO2)sc2c1CCC2` (stereo unspecified) as the compound, how does the Potency read?
A: inconclusive [cytotoxic, single point]

Q: Which Potency does the source give for `COc1ccc(-c2csc(N(CCCN(C)C)C(=O)c3ccc(C(C)(C)C)cc3)n2)cc1` here?
A: active: 16.4 µM

Q: With `COc1cc2c(c(OC)c1OC)C(=O)CC2` as the compound, how does the “activity, negative = toxicity” value read?
A: inactive: 3.66%

Q: Which “activity, negative = toxicity” value does the source give for `COc1ccc(C2=NOC(Cn3nc(-c4ccccc4)cc3C(=O)NCc3cccs3)C2)cc1` (stereo unspecified) here?
A: inactive: -1.72%

Q: For `Cc1ccc(C(=O)N2CCCC(CCC(=O)NCc3ccc(F)c(F)c3)C2)cn1` (stereo unspecified), which “activity, negative = toxicity” value is on record?
A: inactive: 0.956%

Q: For `CN1c2ccccc2N(C)C1c1ccc2c(c1)OCO2`, which Potency is on record?
A: inconclusive [cytotoxic, partial curve]
